Positions count from the first letter of the chain named. The list shows a part of the results.

Sequences and labels used below:
B1: UUUAUUU (DNA:RNA)
RNA: GGGAGACCGGAAUUCAGAUUGUCCUUUAUUUUUAAAUCCCGUCGUAGCCACCA
DNA 1: CAATCTGAATTCCGGTCTCCC
DNA 2: TGGTGGCTACGACGGGATT
B2: CAUUGCC (DNA:RNA)
RNA: B1 RNA with U25C, U26A, A28U, U29G, U30C, U31C
DNA 1: CAATCTGAATTCCGGTCTCCC
DNA 2: TGGTGGCTACGACGGGATT
B3: AAUCCGC (DNA:RNA)
RNA: B1 RNA with U25A, U26A, A28C, U29C, U30G, U31C
DNA 1: CAATCTGAATTCCGGTCTCCC
DNA 2: TGGTGGCTACGACGGGATT
B4: UCUCUAG (DNA:RNA)
RNA: B1 RNA with U26C, A28C, U30A, U31G
DNA 1: CAATCTGAATTCCGGTCTCCC
DNA 2: TGGTGGCTACGACGGGATT
B5: UGACUAU (DNA:RNA)
RNA: B1 RNA with U26G, U27A, A28C, U30A
DNA 1: CAATCTGAATTCCGGTCTCCC
DNA 2: TGGTGGCTACGACGGGATT
B6: UGAUGGC (DNA:RNA)
RNA: B1 RNA with U26G, U27A, A28U, U29G, U30G, U31C
DNA 1: CAATCTGAATTCCGGTCTCCC
DNA 2: TGGTGGCTACGACGGGATT
B7: CAGUUUA (DNA:RNA)
RNA: B1 RNA with U25C, U26A, U27G, A28U, U31A
DNA 1: CAATCTGAATTCCGGTCTCCC
DNA 2: TGGTGGCTACGACGGGATT
B8: AGGCGUU (DNA:RNA)
RNA: B1 RNA with U25A, U26G, U27G, A28C, U29G
DNA 1: CAATCTGAATTCCGGTCTCCC
DNA 2: TGGTGGCTACGACGGGATT
B9: GGGGCCU (DNA:RNA)
RNA: B1 RNA with U25G, U26G, U27G, A28G, U29C, U30C
DNA 1: CAATCTGAATTCCGGTCTCCC
DNA 2: TGGTGGCTACGACGGGATT
B10: CCUAUGA (DNA:RNA)
RNA: B1 RNA with U25C, U26C, U30G, U31A
DNA 1: CAATCTGAATTCCGGTCTCCC
DNA 2: TGGTGGCTACGACGGGATT
B11: AUGGGUC (DNA:RNA)
RNA: B1 RNA with U25A, U27G, A28G, U29G, U31C
DNA 1: CAATCTGAATTCCGGTCTCCC
DNA 2: TGGTGGCTACGACGGGATT
B12: GGGGCGA (DNA:RNA)
RNA: GGGAGACCGGAAUUCAGAUUGUCCGGGGCGAUUAAAUCCCGUCGUAGCCACCA
DNA 1: CAATCTGAATTCCGGTCTCCC
DNA 2: TGGTGGCTACGACGGGATT
B13: ACACUGC (DNA:RNA)
RNA: B12 RNA with G25A, G26C, G27A, G28C, C29U, A31C
DNA 1: CAATCTGAATTCCGGTCTCCC
DNA 2: TGGTGGCTACGACGGGATT
B14: CAAUGGC (DNA:RNA)
RNA: B12 RNA with G25C, G26A, G27A, G28U, C29G, A31C
DNA 1: CAATCTGAATTCCGGTCTCCC
DNA 2: TGGTGGCTACGACGGGATT
B15: CCACCUU (DNA:RNA)
RNA: B1 RNA with U25C, U26C, U27A, A28C, U29C
DNA 1: CAATCTGAATTCCGGTCTCCC
DNA 2: TGGTGGCTACGACGGGATT
B16: CUGAGCC (DNA:RNA)
RNA: B1 RNA with U25C, U27G, U29G, U30C, U31C
DNA 1: CAATCTGAATTCCGGTCTCCC
DNA 2: TGGTGGCTACGACGGGATT
B17: CAAUCCG (DNA:RNA)
RNA: B12 RNA with G25C, G26A, G27A, G28U, G30C, A31G
DNA 1: CAATCTGAATTCCGGTCTCCC
DNA 2: TGGTGGCTACGACGGGATT
B18: CCUUUAA (DNA:RNA)
RNA: B1 RNA with U25C, U26C, A28U, U30A, U31A
DNA 1: CAATCTGAATTCCGGTCTCCC
DNA 2: TGGTGGCTACGACGGGATT
B19: UUGGCUU (DNA:RNA)
RNA: B1 RNA with U27G, A28G, U29C
DNA 1: CAATCTGAATTCCGGTCTCCC
DNA 2: TGGTGGCTACGACGGGATT
B20: GGGACGG (DNA:RNA)
RNA: B12 RNA with G28A, A31G
DNA 1: CAATCTGAATTCCGGTCTCCC
DNA 2: TGGTGGCTACGACGGGATT
B21: AACUAAG (DNA:RNA)
RNA: GGGAGACCGGAAUUCAGAUUGUCCAACUAAGUUAAAUCCCGUCGUAGCCACCA
DNA 1: CAATCTGAATTCCGGTCTCCC
DNA 2: TGGTGGCTACGACGGGATT
B22: CGACCUU (DNA:RNA)
RNA: B12 RNA with G25C, G27A, G28C, G30U, A31U
DNA 1: CAATCTGAATTCCGGTCTCCC
DNA 2: TGGTGGCTACGACGGGATT
B23: AAAUCGG (DNA:RNA)
RNA: B21 RNA with C27A, A29C, A30G
DNA 1: CAATCTGAATTCCGGTCTCCC
DNA 2: TGGTGGCTACGACGGGATT
B24: CGGUUGU (DNA:RNA)
RNA: B12 RNA with G25C, G28U, C29U, A31U
DNA 1: CAATCTGAATTCCGGTCTCCC
DNA 2: TGGTGGCTACGACGGGATT
B25: CCCUGAC (DNA:RNA)
RNA: B21 RNA with A25C, A26C, A29G, G31C
DNA 1: CAATCTGAATTCCGGTCTCCC
DNA 2: TGGTGGCTACGACGGGATT
B26: AUUUGAU (DNA:RNA)
RNA: B21 RNA with A26U, C27U, A29G, G31U
DNA 1: CAATCTGAATTCCGGTCTCCC
DNA 2: TGGTGGCTACGACGGGATT
B27: UCUGCUC (DNA:RNA)
RNA: B1 RNA with U26C, A28G, U29C, U31C
DNA 1: CAATCTGAATTCCGGTCTCCC
DNA 2: TGGTGGCTACGACGGGATT
B28: CGACUCG (DNA:RNA)
RNA: B21 RNA with A25C, A26G, C27A, U28C, A29U, A30C
DNA 1: CAATCTGAATTCCGGTCTCCC
DNA 2: TGGTGGCTACGACGGGATT
B29: CUCGCCC (DNA:RNA)
RNA: B12 RNA with G25C, G26U, G27C, G30C, A31C
DNA 1: CAATCTGAATTCCGGTCTCCC
DNA 2: TGGTGGCTACGACGGGATT
B30: AGCUUCU (DNA:RNA)
RNA: B21 RNA with A26G, A29U, A30C, G31U
DNA 1: CAATCTGAATTCCGGTCTCCC
DNA 2: TGGTGGCTACGACGGGATT
B31: AACAUUA (DNA:RNA)
RNA: B21 RNA with U28A, A29U, A30U, G31A
DNA 1: CAATCTGAATTCCGGTCTCCC
DNA 2: TGGTGGCTACGACGGGATT

This test has as its target T1, RBFOX1 RRM RbFoxmut (Fox-RRM*) (Homo sapiens, UniProt Q9NWB1 109-208, R118D;E147R;N151S;E152T).
T1 sequence: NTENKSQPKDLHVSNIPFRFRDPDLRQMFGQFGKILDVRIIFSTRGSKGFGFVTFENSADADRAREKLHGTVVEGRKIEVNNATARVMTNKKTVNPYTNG
The test is described as follows: EMSA; HiTS-Eq, 1 nM pool, 10 min; buffer printed only for the single-RNA assays: 10 mM Tris pH 7.5, 150 mM NaCl, 3.4 mM EDTA, 0.001% NP-40, 30 C. Conditions: tags: His6 N-terminal (pET28a); label: 5' 32P. In short, it runs like this:
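Purified RbFox RRM, wild type or mutant, was incubated for 10 min in 50 µL with 1 nM of a 5′-radiolabelled RNA pool carrying 7 randomized nucleotides, whose flanks were annealed to DNA oligonucleotides, over a series of increasing protein concentrations. Unbound RNA was resolved on 8% native PAGE, cut out, reverse-transcribed, barcoded by PCR and sequenced on an Illumina HiSeq 2500. Relative association constants were derived from changes in read counts for each RNA species versus the control reaction and normalised to the cognate motif.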
(In general: A gel shift assay detects complexes by their altered migration in electrophoresis.)
With B1, the binding signal is 0.116 KA relative to UGCAUGU.
Turning to B2, the binding signal is 0.374 KA relative to UGCAUGU.
In the case of B3, the binding signal is 0.066 KA relative to UGCAUGU.
Regarding B4, the binding signal was 0.0937 KA relative to UGCAUGU.
In the case of B5, the binding signal was 0.0671 KA relative to UGCAUGU.
Take B6: the binding signal was 0.0965 KA relative to UGCAUGU.
As for B7, the binding signal was 0.125 KA relative to UGCAUGU.
Regarding B8, the binding signal is 0.0923 KA relative to UGCAUGU.
Consider B9, for which the binding signal was 0.118 KA relative to UGCAUGU.
For the molecule B10, the binding signal is 0.126 KA relative to UGCAUGU.
For the molecule B11, the binding signal was 0.167 KA relative to UGCAUGU.
With B12, the binding signal was 0.132 KA relative to UGCAUGU.
As to B13, the binding signal was 0.0764 KA relative to UGCAUGU.
Take B14: the binding signal is 0.102 KA relative to UGCAUGU.
To B15 belongs 0.0833 KA relative to UGCAUGU.
Regarding B16, the binding signal was 0.135 KA relative to UGCAUGU.
Turning to B17, the binding signal is 0.0569 KA relative to UGCAUGU.
Regarding B18, the binding signal is 0.0922 KA relative to UGCAUGU.
B19: the binding signal is 0.107 KA relative to UGCAUGU.
B20: the binding signal is 0.0996 KA relative to UGCAUGU.
To B21 belongs 0.0963 KA relative to UGCAUGU; to B22, 0.0967 KA relative to UGCAUGU.
As for B23, the binding signal is 0.0721 KA relative to UGCAUGU.
With B24, the binding signal was 0.157 KA relative to UGCAUGU.
On to B25, for which the binding signal was 0.0965 KA relative to UGCAUGU.
For B26 the value was 0.0979 KA relative to UGCAUGU; for B27, 0.0797 KA relative to UGCAUGU.
For B28 the value was 0.0953 KA relative to UGCAUGU; for B29, 0.0592 KA relative to UGCAUGU.
For B30 the value was 0.0723 KA relative to UGCAUGU.
For the molecule B31, the binding signal is 0.0832 KA relative to UGCAUGU.

Source of the values: publication PMC9911399, “Two distinct binding modes provide the RNA-binding protein RbFox with extraordinary sequence specificity”.
